According to PubChem BioAssay AID504444 (National Center for Advancing Translational Sciences (NCATS), 2011):
Among all 360,000 compounds or so, about 7,500 (2.1%) were called active. Another 20% or so got no clear call; they are omitted. Calls come from the whole dose curve; as a rule, active = well fitted inhibition curve with a large enough effect; inconclusive = small, poorly fitted or top-dose-only effect, or effect the other way; inactive = flat fitted curve, though single readings scatter. The list shows a part of the results, in another mix than the full data.

Test: Nrf2 qHTS screen for inhibitors; note: nearly all actives have a fitted effect of over 60% in size
Conditions: A549 ARE-Fluc reporter, luciferase luminescence, 18-24 h; series mostly up to 46 µM; activity change, negative = inhibition: at the top concentration
Method in brief: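 A549 ARE_Fluc cells (5000/well, 5% FBS OPTI-MEM) pre-incubated 2 h, then treated with compounds 18-24 h at 37C/5% CO2 in concentration-response. CellTiter-Fluor viability read first; BugLite luciferase luminescence after 15 min at room temperature gives Nrf2 activity.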
% is set by controls: 0 for no effect and ±100 for the full control effect; potency is the fitted concentration of half-maximal effect.

Activity change, negative = inhibition, inactive:
C/C(N)=C(/C#N)C(=O)COC(=O)c1cc(-c2ccc(Br)cc2)nc2ccccc12 -24.2%
COc1ccc(OC)c(CCNC(=O)C2CCN(c3ncnc4c3nc3n4CCCCC3)CC2)c1 -10.9%
CCC1CN(C(=O)NCc2ccc(F)cc2)c2ccccc2O1 (configuration not stated) -1.27%
OCC[C@@H]1C[C@@H](O)[C@H](O)[C@]2(Cc3ccccc3CO2)O1 -12.3%
COC(C[C@H]1O[C@H]1[C@@H](O)[C@@H](C)OCc1ccccc1)OC -0.75%
CCOC(=O)c1ccc(NC(=O)c2nc(S(=O)(=O)Cc3ccccc3)ncc2Cl)cc1 -5.26%
CCC(=O)N1c2ccccc2C(N(C(C)=O)c2ccccc2)CC1C (configuration not stated) 7.82%
COc1ccc(CN2CCN(S(=O)(=O)c3ccc(NC(C)=O)cc3)CC2)c(OC)c1OC -4.24%
COc1ccc(NC(=O)c2ccc3c(c2)CCN3S(=O)(=O)c2ccccc2)cc1 -13.5%
CCc1nn(CCCC(=O)NC(C)c2ccccc2)c(=O)c2cc3occc3n12 (configuration not stated) -14.5%
CC(CNC(=O)CCS(=O)(=O)c1cc2c(cc1Cl)NC(=O)CO2)c1ccccc1 (configuration not stated) 10%
CC(C)C[C@H](NC(=O)C1CCC(CNC(=O)[C@@H]2CCCN2C(=O)OC(C)(C)C)CC1)C(=O)O (some centres not stated) 2.78%
O=C(Nc1nnc(S(=O)(=O)N2CCOCC2)s1)c1ccc(F)cc1 14.2%
COc1ccc(C(CCN2CCN(c3ccccc3)CC2)c2c(OC)cc(OC)c3c(-c4ccccc4)cc(=O)oc23)cc1 (configuration not stated) -0.355%
C[C@H]1CC[C@@]2(O[C@@H](CCO)C[C@H](O)[C@H]2O)O1 -8.53%
CNC(=O)/C(C#N)=C/c1cc(C)n(-c2ccc(N3CCOCC3)cc2)c1C 9.32%
Cc1cccc(NS(=O)(=O)c2ccc3nc(-c4ccccc4)[nH]c3c2)c1C -10.4%
O=C(/C=C/c1ccccc1[N+](=O)[O-])Nc1ccccc1 5.41%
Cc1ccc2c(c1)N(CC(=O)NCCCN1CCCCC1C)C(=O)c1cccnc1O2 (configuration not stated) 18.8%
C[C@@H](C(=O)Nc1ccc2ccccc2c1)[C@@H]1C[C@@]1(C)[C@@H](NC(=O)c1cccnc1)c1ccccc1 4.27%
CCOC(=O)N1CCc2c(sc3c2c(=O)n(Cc2ccccc2)c(=O)n3Cc2ccc(C)cc2)C1 -5.45%
Nc1ncnc2nc[nH]c12 17.3%
COc1ccc(-c2nnc(SCC(=O)N3CCCCC3)o2)cc1 16.9%
CC(C)CC(=O)Nc1nnc(S(=O)(=O)N(C)c2ccc(Cl)cc2)s1 -1.21%
CCN1C(=O)[C@@H]2[C@@H](c3ccc(SC4CCCCC4)c(OC)c3)N3CCCC[C@@]3(C(=O)OC)[C@@H]2C1=O 25.5%
CCOC(=O)c1cc2c(=O)n3ccccc3nc2n(Cc2ccco2)c1=NC(=O)c1ccccc1OC 6.22% [at 9.27 µM]
NC(=O)C1CCN(c2nc(-c3ccc(Br)cc3)cs2)CC1 -18%
O=C(N/N=C/C(Br)=C/c1ccccc1)c1n[nH]c2c1CCC2 -10.2%
COc1cc(/C=C2/S/C(=N/S(=O)(=O)Cc3ccccc3)NC2=O)c([N+](=O)[O-])cc1OC -7.35%
Nc1c(C(=O)NCc2ccc3c(c2)OCO3)nnn1CC(=O)Nc1ccc(Br)cc1 -23.8%
COc1cccc(NC(=O)CN2C(=O)COc3ccc(S(=O)(=O)N4CCCCCC4)cc32)c1 1.41%
Cc1cc(Br)ccc1SCC(=O)OCC(O)=C(C#N)c1nc2ccccc2[nH]1 -3.64%
CC(C)(C)OC(=O)C[C@H]1C/C=C\C[C@H](CC(=O)N(CCO)Cc2ccccc2)C(=O)NC[C@H](c2ccccc2)OC1=O 0.288%
CCOC(=O)N1C(=O)[C@](c2ccc(Cl)cc2)(C(C)C)N1C(=O)OCC 9.13%
CCCCc1ccc(-c2csc(/C(C#N)=C\c3ccco3)n2)cc1 -16%
CCN(CC)S(=O)(=O)c1ccc2c(c1)c(=O)c(C(=O)NCCc1ccccc1)cn2C 16.6%
CCOC(=O)c1c(C)[nH]c(C)c1S(=O)(=O)N(C)CC(=O)NCc1ccc(C)cc1 -5.96%
O=C(Nc1ccccc1)C1=C[C@H](C2CC2)C[C@H](OCCCCO)O1 10.3%
COc1cccc(NC(=O)Cn2nnc(C(=O)NCc3ccc4c(c3)OCO4)c2N)c1 -19.2%
O=C(CCn1ccc2cc(S(=O)(=O)N3CCCC3)ccc21)NCc1ccccc1F 2.66%
CCCN1CNc2c(c(=O)[nH]c(=S)n2CCc2ccc(OC)c(OC)c2)C1 -14.9%
COc1ccc(C2/C=C\CN(C(=O)c3ccccc3)C(Cc3ccccc3)C(=O)N2Cc2ccc(F)cc2)cc1 (configuration not stated) -10.5%

Potency, active:
COc1ccccc1S(=O)(=O)NCc1ccc(C(=O)N(C)Cc2ccc(F)cc2)cc1 23.1 µM
CCOc1ccc(N(CC(=O)Nc2cccc(F)c2)S(=O)(=O)c2c(C)noc2C)cc1 13 µM
CCc1nc(C)cn1S(=O)(=O)c1cc(Br)ccc1OC 23.1 µM
O=C1NC(=S)S/C1=C\c1cc2ccccc2nc1N1CCCCC1 20.6 µM
COc1ccc(Cl)cc1NC(=O)CCCn1c(=O)c2cccn2c2cccnc21 16.4 µM
COc1ccc(CN2CCN(C(=O)C3CCN(S(=O)(=O)c4cccs4)CC3)CC2)c(OC)c1OC 14.6 µM
Cc1ccc(C)c(NS(=O)(=O)c2ccc3c(c2)Cc2cc(S(=O)(=O)Nc4cc(C)ccc4C)ccc2-3)c1 13 µM
COc1ccc(CCNC(=O)c2cccc([N+](=O)[O-])c2)cc1OC 2.59 µM
CN(C)c1ccc(C(=O)N/N=C/c2cc(Br)cc(Br)c2O)cc1 13 µM
CC1(C)CC(=O)c2sc(NC(=O)c3cccs3)nc2C1 14.6 µM
Nc1ccc(C#Cc2ccc3c(=O)c4ccccc4oc3c2)cc1 10.3 µM
Cn1nccc1C(=O)Nc1cc(Cl)ccc1Cl 2.91 µM
Cc1ccc(-c2cc(-c3ccccc3)c3c(N)c(S(C)(=O)=O)sc3n2)cc1 13 µM
C=CC[C@H](CC(=O)N(CCO)Cc1ccccc1)C(=O)N[C@@H](COC(=O)[C@@H](CC=C)CC(=O)OC(C)(C)C)Cc1c[nH]c2ccccc12 20.6 µM
CCn1nnnc1NCc1ccc(OCc2ccc(F)cc2Cl)c(OC)c1 20.6 µM
